Assay results reported in the supplement of paper PMC3334620.
The full ranking holds about 33,000 sequences; the median of “E-score (-0.5 to 0.5)” is about -0.032, and the highest 2% start at about 0.36. The list shows a part of the results.

molecular target: T1, Sko1 (UniProt Q02100); experiment: PBM E-score (8-mer binding enrichment) (E-score (-0.5 to 0.5)); higher = stronger / more preferred TF binding; most listed sequences are background and not binding sites; conditions: protein concentration: 200 nM; construct: GST-full length
T1 sequence: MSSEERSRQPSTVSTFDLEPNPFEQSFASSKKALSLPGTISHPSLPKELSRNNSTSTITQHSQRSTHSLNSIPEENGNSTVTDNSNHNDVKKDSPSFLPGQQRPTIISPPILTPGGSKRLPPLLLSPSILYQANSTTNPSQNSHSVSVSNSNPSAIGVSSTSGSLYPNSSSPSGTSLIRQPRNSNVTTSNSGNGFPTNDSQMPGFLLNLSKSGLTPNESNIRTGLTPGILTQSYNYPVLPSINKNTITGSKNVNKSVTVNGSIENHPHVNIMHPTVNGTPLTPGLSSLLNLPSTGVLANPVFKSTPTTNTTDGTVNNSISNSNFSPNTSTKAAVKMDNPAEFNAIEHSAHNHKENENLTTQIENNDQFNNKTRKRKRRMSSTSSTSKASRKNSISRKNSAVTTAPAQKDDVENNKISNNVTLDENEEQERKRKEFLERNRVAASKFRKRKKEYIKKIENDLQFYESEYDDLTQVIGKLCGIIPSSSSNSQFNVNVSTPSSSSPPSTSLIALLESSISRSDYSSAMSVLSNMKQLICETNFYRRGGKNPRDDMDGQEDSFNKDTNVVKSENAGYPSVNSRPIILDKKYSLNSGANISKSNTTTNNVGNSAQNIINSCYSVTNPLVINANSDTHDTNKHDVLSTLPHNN
Outline: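 GST-tagged yeast TFs (full-length or DNA-binding domain) were made by PURExpress in vitro transcription/translation and applied at about 100-200 nM to universal all-10-mer Agilent arrays. The arrays were made double-stranded by primer extension, on fresh or once-stripped slides. Bound protein was detected with fluorescent anti-GST, and scans were normalised with masliner. Each ungapped eight-base word, pooled with its reverse complement, received an E-score (modified Wilcoxon-Mann-Whitney statistic) from the Universal PBM Analysis Suite.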

Row | Sequence | PBM E-score
1 | CGTCCAGA | 0.14
2 | GCATATCC | -0.135
3 | GAACGCGA | 0.0396
4 | CGAATTCG | -0.0359
5 | ATATGTAC | 0.19
6 | CGCGCACC | 0.00717
7 | AGAGCAGA | -0.0457
8 | ACCGTATA | 0.0367
9 | CAGAGGCA | -0.00209
10 | AGACGGAT | 0.0284
11 | ATAGAAAA | 0.142
12 | AAGCCGCT | -0.251
13 | ACTCTCAC | -0.0768
14 | AGATACTG | 0.0876
15 | CATAATAA | 0.345
16 | AATTGCGT | 0.448
17 | AATATTGC | 0.257
18 | CACACAGC | 0.0469
19 | CCTGAATA | 0.0721
20 | AAATGTGA | 0.129
21 | CCTTGTCA | -0.0549
22 | AGCGCTCA | -0.201
23 | AATGACGA | 0.476
24 | AGAGTCCG | -0.222
25 | AGAGTTCC | -0.269

Row | Sequence | PBM E-score
26 | ACCTTGTC | -0.177
27 | ACTCCGTG | -0.0155
28 | GATATACA | 0.0791
29 | CTATGCCC | -0.109
30 | ATTACGCA | 0.47
31 | AAACTGGG | -0.262
32 | GACCATCC | -0.0785
33 | CGAGGTCC | -0.434
34 | AAACCTCT | -0.0982
35 | ATTCCATG | -0.0675
36 | CTCCTAAG | -0.0682
37 | GGGTGATA | -0.168
38 | CCGATAAA | -0.0878
39 | CACAGACA | 0.0497
40 | ATGCATTG | 0.0538
41 | AGGGGCCG | -0.177
42 | CAGATGGA | -0.0703
43 | CGCGATAA | 0.172
44 | AACAGGTC | -0.144
45 | ATGAAAAC | 0.22
46 | TGACAGAA | 0.141
47 | ACTACACA | 0.189
48 | ATGTCTGC | -0.159
49 | GCACTATA | -0.016
50 | AACGACCC | -0.24

Row | Sequence | PBM E-score
51 | TCGCGTCA | 0.408
52 | GTCCATTA | 0.201
53 | CCCGGAGC | -0.259
54 | CCCACTCC | -0.282
55 | AAGCCACA | 0.0819
56 | CATCTCCG | 0.0127
57 | GCACACCA | 0.0562
58 | ATTCTTCC | -0.0522
59 | CCGCCATA | -0.182
60 | ACAAGTAC | 0.154
61 | CACAGCAC | -0.0923
62 | AATTTTCG | 0.0901
63 | AGGACAAG | -0.266
64 | GGCTACAC | -0.153
65 | GGATCAAA | -0.0377
66 | GACAGGTA | -0.0841
67 | AGGGAGAG | -0.334
68 | AAAGACGA | 0.172
69 | GGATCGCC | -0.0722
70 | GAAGGGAC | -0.172
71 | ATGTTTCA | 0.0236
72 | CCGGGACC | -0.273
73 | AAGACCAT | -0.149
74 | GAGATCAA | -0.00777
75 | CGTATATA | 0.418

Row | Sequence | PBM E-score
76 | CTCACAAG | 0.042
77 | CCTATAGA | -0.0723
78 | CCCCGAAG | -0.228
79 | AAGCTGAT | 0.0838
80 | AGTTCTCC | -0.178
81 | ATCCATGG | -0.237
82 | CTAAATCC | -0.198
83 | GCTTGTAA | 0.0121
84 | CGGGATTC | 0.0141
85 | AACGCTAA | -0.0246
86 | CTTTGGTC | 0.0509
87 | AGGTAGGC | -0.0922
88 | AGCACTAA | -0.192
89 | CACGTCGA | 0.278
90 | CATTGAGG | -0.021
91 | CCTTGGTA | 0.0289
92 | ATGAAATC | 0.172
93 | GGAGTACC | -0.247
94 | ACACCCGA | -0.187
95 | GCTGAACC | -0.238
96 | AAGATTCC | 0.0686
97 | CGTGTATC | 0.116
98 | CCCCCTAC | -0.267
99 | CCAATGAA | -0.215
100 | ATATAGTC | 0.194

Row | Sequence | PBM E-score
101 | ACCACTGA | -0.00793
102 | GGAACCGA | -0.182
103 | AGTATATG | 0.0683
104 | CATTGACA | -0.0852
105 | CGCCCGGC | -0.212
106 | AGGGCGTG | -0.103
107 | CCCTCGTA | -0.00424
108 | AACGCCAT | 0.195
109 | CCAACGCG | 0.0116
110 | ATGACCAT | 0.151
111 | CTGCATGA | -0.101
112 | AACGACGT | 0.411
113 | CACGAAGG | -0.0146
114 | CCCCTAAC | -0.194
115 | CCCGGCGA | -0.223
116 | CATCACAG | 0.17
117 | CTATCTTC | 0.129
118 | GCAAACGA | 0.136
119 | ACGCGAGA | 0.131
120 | GAAGCGGA | -0.235
121 | AGGACTAT | -0.222
122 | GAGCAAAC | -0.0519
123 | GTTCGAAA | 0.114
124 | AAGTTTTA | 0.142
125 | ATAGGTTC | -0.0831

Row | Sequence | PBM E-score
126 | AACCCCCT | -0.333
127 | CTTATGAA | -0.0245
128 | TACAGTAA | 0.201
129 | CGTTATCA | 0.26
130 | ATTACATG | 0.324
131 | ATGACGGG | 0.338
132 | CATGGAAG | 0.148
133 | AAAGTAGC | -0.0666
134 | AAGCAATC | 0.00763
135 | ACTCTGTA | 0.082
136 | GTGGGGTA | -0.0573
137 | GAGGTTGC | -0.116
138 | AGAACTCC | -0.207
139 | TGTTCGAA | -0.0402
140 | AACATGAA | 0.0776
141 | ACTCGTTG | 0.0164
142 | GAAATCGA | -0.131
143 | CCCTTCGA | -0.331
144 | AGCTTCAA | -0.06
145 | AGAATCCT | -0.296
146 | TAGTGTCA | 0.147
147 | AAGACAGC | -0.16
148 | ATTTTAAC | -0.0019
149 | ATTCACCC | -0.196
150 | TCCCGGAA | -0.263

Row | Sequence | PBM E-score
151 | GGAATTAC | 0.212
152 | CTCGTTTC | 0.0206
153 | CCGTAATA | 0.288
154 | CGAGGCAC | -0.224
155 | CGAGAGAA | -0.105
156 | TACGTTGA | 0.38
157 | CGCTCTCA | -0.0854
158 | AATAGGAT | 0.111
159 | TCAATCGA | 0.167
160 | ATCCCAAA | -0.136
161 | AGAAACAG | -0.138
162 | CAGAGTGG | -0.0194
163 | AGACGCCT | -0.0417
164 | CATTAGGG | -0.146
165 | AAAGTAGT | 0.113
166 | GATTACCA | -0.00744
167 | ACGTAGTG | 0.452
168 | ACATCACA | 0.313
169 | AACTACTA | 0.124
170 | GCGTCAGA | 0.364
171 | GCCGATTA | 0.00424
172 | CCAGGCCC | -0.257
